The campaign covered roughly 310,000 compounds. About 14,000 (4.5%) showed an effect of 50% or more. The effect is printed as a negative number. Some of the results follow.
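Also: peak tail current of the secondary pulse compared with the same well before compound.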

Chain of human ether-à-go-go-related gene (hERG) potassium channel (Q12809 whole entry, looked up): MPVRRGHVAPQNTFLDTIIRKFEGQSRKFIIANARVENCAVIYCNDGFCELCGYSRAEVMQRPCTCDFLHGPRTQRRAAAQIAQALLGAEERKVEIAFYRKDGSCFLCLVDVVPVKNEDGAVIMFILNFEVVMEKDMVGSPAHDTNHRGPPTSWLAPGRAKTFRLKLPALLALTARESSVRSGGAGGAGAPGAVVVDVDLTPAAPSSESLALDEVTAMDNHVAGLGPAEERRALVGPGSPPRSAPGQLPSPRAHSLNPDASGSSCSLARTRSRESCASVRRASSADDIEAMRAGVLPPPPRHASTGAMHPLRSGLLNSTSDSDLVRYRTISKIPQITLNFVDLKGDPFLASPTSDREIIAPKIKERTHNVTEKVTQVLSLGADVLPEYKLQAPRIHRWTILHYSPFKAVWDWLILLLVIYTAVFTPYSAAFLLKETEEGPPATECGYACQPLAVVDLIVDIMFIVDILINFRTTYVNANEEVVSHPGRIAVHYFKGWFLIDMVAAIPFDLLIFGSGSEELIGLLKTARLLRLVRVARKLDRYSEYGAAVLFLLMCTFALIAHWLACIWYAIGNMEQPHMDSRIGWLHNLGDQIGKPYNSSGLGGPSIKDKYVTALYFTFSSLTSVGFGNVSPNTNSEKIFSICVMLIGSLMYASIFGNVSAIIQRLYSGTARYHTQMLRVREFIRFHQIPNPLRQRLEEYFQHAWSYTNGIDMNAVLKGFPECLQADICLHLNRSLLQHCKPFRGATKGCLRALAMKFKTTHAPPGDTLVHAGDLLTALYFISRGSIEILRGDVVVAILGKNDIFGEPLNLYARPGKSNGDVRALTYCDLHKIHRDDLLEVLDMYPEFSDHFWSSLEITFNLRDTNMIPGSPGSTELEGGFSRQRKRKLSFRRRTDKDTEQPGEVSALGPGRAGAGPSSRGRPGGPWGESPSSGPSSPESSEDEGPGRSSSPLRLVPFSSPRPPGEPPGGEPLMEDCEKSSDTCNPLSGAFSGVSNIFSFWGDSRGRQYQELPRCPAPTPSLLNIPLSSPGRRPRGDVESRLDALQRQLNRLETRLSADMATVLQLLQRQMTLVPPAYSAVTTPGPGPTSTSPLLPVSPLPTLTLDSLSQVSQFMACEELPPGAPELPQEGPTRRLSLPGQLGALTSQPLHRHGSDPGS

This experiment addresses human ether-à-go-go-related gene (hERG) potassium channel (human, UniProt Q12809). Briefly: primary screen, population patch clamp on CHO cells stably expressing hERG.
`Cc1noc(NS(=O)(=O)c2ccc(N3CC(O)=C(c4ccccc4)C3=N)cc2)c1C`: the “hERG current change (%, negative = inhibition) at 10uM” value is 20.5%.

`CCCn1nc(C(=O)Nc2nc3ccccc3[nH]2)c2ccccc2c1=O`: the “hERG current change (%, negative = inhibition) at 10uM” value is listed as -15%.

Take `Cc1ccc2oc3nc(C)c(C(=O)O)cc3c(=O)c2c1`: the “hERG current change (%, negative = inhibition) at 10uM” value was -0.671%.

With `Cc1c(-c2ccccc2)oc2c(C(=O)N3CCN(c4ccccc4F)CC3)cccc2c1=O`, the “hERG current change (%, negative = inhibition) at 10uM” value is -8.63%. Then `Cc1[nH]c(=O)[nH]c(=O)c1S(=O)(=O)Nc1ccc(Cl)c([N+](=O)[O-])c1`, with 19.5%; and `CNC(=O)C1CC(=O)N(CCc2ccc(OC)cc2)C(=Nc2ccc(OC)cc2)S1` (centres unmarked), with -9.54%.

In the case of `COc1ccc(-c2cc(-c3cccs3)c(C#N)c(SCC(=O)NCc3ccco3)n2)cc1`, the “hERG current change (%, negative = inhibition) at 10uM” value was found to be 5.02%. Then `CCN(CC)S(=O)(=O)c1ccc(N2CCCC2)c(NC(=O)Cc2ccc(OC)cc2)c1`, with -7.53%.

Consider `O=C1NC2(CCCCC2)C(=O)N1c1cccc(Cl)c1`, for which the “hERG current change (%, negative = inhibition) at 10uM” value is reported as 12.5%.

Consider `O=C(O)CNC(=O)c1ccc(NS(=O)(=O)c2ccc3ccccc3c2)cc1`, for which the “hERG current change (%, negative = inhibition) at 10uM” value is reported as 19.1%. Then `COc1ccc(-c2oc3ccccc3c2C(=O)Oc2ccccc2)cc1`, with 19.2%; and `Cc1ccc2c(c1)N(CC(=O)N1CCCC1)C(=O)C(C)O2` (centres unmarked), with 19.4%. Then `CCOC(=O)c1c(C)[nH]c(C(=O)CN2C(=O)NC(C)(c3ccc(C)cc3)C2=O)c1C` (centres unmarked), with 4.54%; and `CCOc1ccc(N(CC(=O)Nc2c(C)n(C)n(-c3ccccc3)c2=O)S(=O)(=O)c2ccc(F)cc2)cc1`, with -17.6%. Then `COc1cc(C(=O)NCc2nnc(SCC(=O)NC3CCCCC3)o2)cc(OC)c1OC`, with 13.6%; and `CCOC(=O)Cn1nc(/C=C/c2ccc(OC)cc2)ccc1=O`, with -36.3%. On to `COCc1ccc2oc(C(=O)O)cc2c1`, for which the “hERG current change (%, negative = inhibition) at 10uM” value was determined as 6.1%. `COc1ccc(N(CC(=O)NCc2ccc(C)cc2)S(=O)(=O)c2c(C)nn(C)c2C)cc1`: the “hERG current change (%, negative = inhibition) at 10uM” value is recorded as 5.17%. Then `CC(C)COP(=O)(c1ccc(N(C)C)cc1)C(O)c1ccncc1` (centres unmarked), with -3.58%; and `CCOC(=O)c1c(C)[nH]c(C)c1C(=O)COC(=O)[C@@H]1CCCN1S(=O)(=O)c1ccc(Cl)cc1`, with -24.5%. Then `CCOc1ccc(N(CC(=O)Nc2ccccc2C(=O)NC(C)CC)S(C)(=O)=O)cc1` (centres unmarked), with -13.3%. Then `C=CCNC(=S)NNC(=O)c1cc(C)nc2ccccc12`, with 14.7%. Turning to `Cn1c(=O)c(=O)n(C)c2cc(N3CCCCC3)c(NS(=O)(=O)c3ccc([N+](=O)[O-])cc3)cc21`, the “hERG current change (%, negative = inhibition) at 10uM” value is listed as -50.6%.

Turning to `CN(C(=O)COC(=O)c1cccc(NS(=O)(=O)c2ccc(F)c(F)c2)c1)C1CCS(=O)(=O)C1` (centres unmarked), the “hERG current change (%, negative = inhibition) at 10uM” value was 29.4%.

As to `COc1ccc([C@H]2CC(=O)C=C(c3ccc(OC)cc3OC)C2)cc1`, the “hERG current change (%, negative = inhibition) at 10uM” value is reported as 12.9%. Then `O=C1c2c([N+](=O)[O-])cc([N+](=O)[O-])cc2S(=O)N1Cc1ccccc1` (centres unmarked), with 17.9%. Then `COc1ccc(C(=O)N/C(=C\c2cccc3ccccc23)C(=O)N2CCN(C)CC2)cc1OC`, with -50.6%; and `Cc1ccc(C(=O)NCCNC(=O)COc2ccc(Cl)cc2)cn1`, with 2.76%; and `CC1CCCCN1C(=O)CCS(=O)(=O)c1cccc2nonc12` (centres unmarked), with -0.528%.

Turning to `CC(=O)Nc1ccc(S(=O)(=O)N2CCC(C(=O)c3ccc(F)cc3)CC2)cc1`, the “hERG current change (%, negative = inhibition) at 10uM” value is on record as -34.6%. Then `Cc1ccc(NC(=O)Nc2cccs2)nc1`, with 4.76%. For `O=C(/C=C\N1CCOCC1)c1ccc(Br)cc1`, the “hERG current change (%, negative = inhibition) at 10uM” value was -6.49%.

For `COc1ccccc1OCCSc1nc2ccccc2n1CC(O)CO` (centres unmarked), the “hERG current change (%, negative = inhibition) at 10uM” value amounted to 13.9%.

With `COc1ccc(S(=O)(=O)Nc2cccc(-c3ccc4nncn4n3)c2)cc1`, the “hERG current change (%, negative = inhibition) at 10uM” value was 16.3%. Then `CN1C(=O)C(O)(CC(=O)/C=C/c2ccco2)c2ccccc21` (centres unmarked), with 14.3%. Then `O=C1NC(=S)N(C2CC2)C(=O)/C1=C/c1ccc2c(c1)CCN2CCCCl`, with 6.53%. Then `O=C(O)c1ccc(N2CC3CC(C2)c2cccc(=O)n2C3)c(NS(=O)(=O)c2cccc(C(F)(F)F)c2)c1` (centres unmarked), with 3.22%. `O=[N+]([O-])c1ccccc1NCc1ccc(Cl)cc1`: the “hERG current change (%, negative = inhibition) at 10uM” value is on record as -19.5%. Then `Nc1nc2ccccc2n1/N=C/c1ccc2c(c1)OCO2`, with 24.6%; and `S=C(c1ccccc1)N(c1ccccc1)c1ccccc1`, with 7.21%. Then `Cn1c(C(=O)N2CCN(Cc3ccc4c(c3)OCO4)CC2)cc2c(=O)n(C)c3ccccc3c21`, with -9.15%; and `Cc1ccc(CN2CC(C(=O)N(Cc3nnc(-c4ccccc4Cl)o3)C3CC3)CC2=O)cc1` (centres unmarked), with -45.2%. Then `COc1cc(/C=C/C(=O)O)cc(S(=O)(=O)Nc2cc(Cl)c(Cl)cc2Cl)c1OC`, with 9.1%. In the case of `CC(C)C(c1nnnn1CC1CCCO1)N1CCN(C2CCCC2)CC1.Cl` (centres unmarked), the “hERG current change (%, negative = inhibition) at 10uM” value was 9.3%.

Turning to `COc1ccc(CNC(=O)CCNC(=O)N2CCn3c2nc2ccccc23)cc1`, the “hERG current change (%, negative = inhibition) at 10uM” value is -14.5%.

In the case of `Cc1ccc2[nH]cc(S(=O)(=O)c3ccc(C)c(C)c3)c(=O)c2c1`, the “hERG current change (%, negative = inhibition) at 10uM” value amounted to 16.4%.

For `COc1ccc(OCC(=O)O/N=C(\N)c2ccc(OC)cc2)cc1`, the “hERG current change (%, negative = inhibition) at 10uM” value is -4.82%. With `CSc1ccccc1NC(=O)CN(c1ccccc1)S(=O)(=O)N(C)C`, the “hERG current change (%, negative = inhibition) at 10uM” value is recorded as -7.51%. Then `Cc1nn(CC(=O)N2CCN(c3ccccc3)CC2)c(C)c1[N+](=O)[O-]`, with -9.49%; and `CCOC(=O)c1c(C)[nH]c(C(=O)CN(C)CC(=O)Nc2ccccc2Cl)c1C`, with -4.65%.

Take `CC(=O)C1=C(O)C(=O)N(CCN2CCOCC2)C1c1ccccc1` (centres unmarked): the “hERG current change (%, negative = inhibition) at 10uM” value is -7.76%.

In the case of `CCc1cc2c(=O)c(-c3cnn(-c4ccccc4)c3)c(C)oc2c(CN2CCCCC2)c1O`, the “hERG current change (%, negative = inhibition) at 10uM” value is -28.8%.

As to `O=C(c1nc2ccc(Cl)cn2c1CN1CCCC(CO)C1)N1CCc2ccccc2C1` (centres unmarked), the “hERG current change (%, negative = inhibition) at 10uM” value was -5.4%.
